The values that follow come from the supplement of paper PMC11417369.

± gives the standard deviation of the averaged measurements. Some of the results follow.

This test concerns PfAP2-EXP AP2 domain (GST-tagged). The test is described as follows: gcPBM binding intensity (ln(normalized median fluorescence intensity)); higher = stronger DNA binding. Put shortly: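 For binding intensity, the highest Masliner-normalised natural-log median intensity across replicate spots of either probe orientation was taken. Protein bound to the array was stained with Alexa488 anti-GST antibody and scanned at 488 nm. The protein, GST-tagged P. falciparum DNA-binding domains from E. coli at about 25 μg on average, had been applied for 1 h to an Agilent 4 × 180k array of primer-extended double-stranded 36-bp intergenic genomic probes and negative controls.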
Turning to “AAAAAAAAAAATACTTGTACTTATATAATATATTAT [XGTACX_site8333]”, the “gcPBM binding intensity (ln)” value was determined as 8.16 ± 0.36.

With “AAAAAAAAAAAAAATTGTACATTAAATTAAAAGAAA [XGTACX_site8708]”, the “gcPBM binding intensity (ln)” value is 8.4 ± 0.45.

As to “AAGAAAATATAAAATGCACACTATAAATTGTATATA [CACACA_site7928]”, the “gcPBM binding intensity (ln)” value was found to be 8.59 ± 0.23.

With “ATTAGTATATTTCTCTGTACTTACATTAAAATATAA [XGTACX_site2217]”, the “gcPBM binding intensity (ln)” value stood at 8.49 ± 0.27.

As for “TTTTTATTTATATTTCATTGAAGTTAAATTATTTTA [XGTACX_negctrl_site575]”, the “gcPBM binding intensity (ln)” value amounted to 8.21 ± 0.46.

For the sequence “TACATTCTAATAATTGCACACTGGTTATTAAAAGGA [CACACA_site1614]”, the “gcPBM binding intensity (ln)” value came to 8.4 ± 0.29.

For “TTTTATCAATAAATTCGTACACATGAACTAGAGAGT [XGTACX_site5758]”, the “gcPBM binding intensity (ln)” value turned out to be 8.78 ± 0.44.

Take “TCCTTAAAATATGGTTGTACGTACATCCTAGGTGTT [XGTACX_site7068]”: the “gcPBM binding intensity (ln)” value came to 8.73 ± 0.14.

Consider “AATTTAATATTCATCTCTAAAGCTATAACAATTACT [CACACA_negctrl_site1079]”, for which the “gcPBM binding intensity (ln)” value is 8.29 ± 0.4.

For the sequence “TGTATTATATATGTGTGTACATATTTTTTTTTTTTT [XGTACX_site3351]”, the “gcPBM binding intensity (ln)” value came out at 8.47 ± 0.34.

On to “ATATATATATATAAATGTACAGGCTTATCTCTTATT [XGTACX_site1828]”, for which the “gcPBM binding intensity (ln)” value worked out at 10.2 ± 0.12.

In the case of “TCTGAAAATTAGAAAAGTACAAAATGGTATAGGAAA [XGTACX_site4396]”, the “gcPBM binding intensity (ln)” value was determined as 8.87 ± 0.51.

For the sequence “ATACAAATTTATATTTCACACATTATTATATACTTA [CACACA_site6034]”, the “gcPBM binding intensity (ln)” value was 8.6 ± 0.21.

With “AAATTATTTCAAATGTTGCACTAAAAATAAAATTAT [GTGCAC_site9460]”, the “gcPBM binding intensity (ln)” value was determined as 8.18 ± 0.18.

Consider “CGCACACGCAGACACACACACACATATAAATAAATA [CACACA_site7101]”, for which the “gcPBM binding intensity (ln)” value turned out to be 8.46 ± 0.49.

As for “AAAAAAAAGAAAAAAAAAAAAAAAAAAAAAAAAAAA [CACACA_negctrl_site489]”, the “gcPBM binding intensity (ln)” value came out at 7.89 ± 0.24.

On to “ATATAATATTTATATGTACACACCTTAATCCTTAAA [CACACA_site3555]”, for which the “gcPBM binding intensity (ln)” value was found to be 8.46 ± 0.28.

As to “ATAAACGTTTTTGAAAGTACATATCATTCATTTGAT [XGTACX_site200]”, the “gcPBM binding intensity (ln)” value was 8.52 ± 0.39.

“TTTTAACATATAAGTACACACATATAATCAATCATA [CACACA_site2325]”: the “gcPBM binding intensity (ln)” value came out at 8.51 ± 0.25.

In the case of “TTTGTTCATATGAAATGTACAAAAAAAAAAAAAAAA [XGTACX_site8849]”, the “gcPBM binding intensity (ln)” value was found to be 8.27 ± 0.45.

“TTTTATCGTTTTTTTTTTTTTTTTTTTTTTTTTTTT [CACACA_negctrl_site1309]”: the “gcPBM binding intensity (ln)” value came out at 9.06 ± 0.092.

With “CCTTATAAATACTGCACACATAAAATATATATTATC [CACACA_site2806]”, the “gcPBM binding intensity (ln)” value is 8.8 ± 0.28.

“ATGTAGAAGTAATGCACACATATGTATTTATATATA [CACACA_site5391]”: the “gcPBM binding intensity (ln)” value was found to be 8.84 ± 0.18.

Consider “AAAAAAATTAATATGTCAGCACATATATACATACAT [GTGCAC_negctrl_site110]”, for which the “gcPBM binding intensity (ln)” value was 8.3 ± 0.4.

Take “TATATATATAAAAAAGCACACATACATACATACATA [CACACA_site8196]”: the “gcPBM binding intensity (ln)” value stood at 9.01 ± 0.16.

Consider “TGAAAGAAGCATAAATGTACACACATATTTATATAT [XGTACX_site2645]”, for which the “gcPBM binding intensity (ln)” value is 8.49 ± 0.38.

Take “GTGTTCTTGTTATACACACACATATATATATATATA [CACACA_site1032]”: the “gcPBM binding intensity (ln)” value was determined as 9.88 ± 0.77.

Take “TATTTATTGTGACACTTTTATTATTTTATGATAAAA [CACACA_negctrl_site37]”: the “gcPBM binding intensity (ln)” value is 8.57 ± 0.34.

For the sequence “GAGAAAAGGAAATAACGTACACATATGCATATCCAA [XGTACX_site5858]”, the “gcPBM binding intensity (ln)” value stood at 8.9 ± 0.59.

“GAGAGGTCAGTTCACAGTACCCAGAAACTCTACGAG [XGTACX_site2559]”: the “gcPBM binding intensity (ln)” value was 8.19 ± 0.6.

Consider “GTAATATTTTATAGTAGTACATATTTTTATTATTTT [XGTACX_site3333]”, for which the “gcPBM binding intensity (ln)” value was 8.4 ± 0.38.

“TTGTTCTTATTTCATTTTTATATGATATTTCATTAT [CACACA_negctrl_site1619]”: the “gcPBM binding intensity (ln)” value came out at 8.76 ± 0.49.

Consider “AATATTTATTTAATTTCACACAGGTCTTTTTTTTTT [CACACA_site5188]”, for which the “gcPBM binding intensity (ln)” value worked out at 8.38 ± 0.39.

Take “GACAAACAATATGAATGTACATAAAAATATAACTAA [XGTACX_site1167]”: the “gcPBM binding intensity (ln)” value was 8.63 ± 0.62.

In the case of “TGAATATATAAATATGCACACTTCTATTATAAATAA [CACACA_site5796]”, the “gcPBM binding intensity (ln)” value worked out at 8.34 ± 0.15.

In the case of “TAACATATAAGTGTGTGTACGTACTGCGTATAATAT [XGTACX_site8597]”, the “gcPBM binding intensity (ln)” value stood at 8.92 ± 0.34.

Consider “TGAAGAATATTTTTCACACATATATATATATATATA [CACACA_site6080]”, for which the “gcPBM binding intensity (ln)” value was found to be 10.2 ± 0.38.

For “ATATATATATATATTGCACACACAATTATTATTATT [CACACA_site8721]”, the “gcPBM binding intensity (ln)” value was 10.1 ± 0.21.

Consider “TATATATATAATTAAGCATGCTAGAAACCTTTGAAA [TGCATGCA_site489]”, for which the “gcPBM binding intensity (ln)” value was found to be 8.88 ± 0.61.

Turning to “TACAATCTAAAATACACACGCACACCGAAAAAAAAA [CACACA_site3520]”, the “gcPBM binding intensity (ln)” value came out at 8.65 ± 0.53.

For the sequence “ATATATATATATATATGTACATATTTTTGTTTGATG [XGTACX_site51]”, the “gcPBM binding intensity (ln)” value worked out at 10.2 ± 0.81.

Regarding “CAGATATTCATATAAACACACATACAAATTATGTAT [CACACA_site4258]”, the “gcPBM binding intensity (ln)” value came to 8.46 ± 0.33.

For the sequence “AAATTATTTATATGTTGTACTTATCCATTTTTATAA [XGTACX_site7441]”, the “gcPBM binding intensity (ln)” value stood at 8.61 ± 0.42.

Turning to “TAATTTTTTTTATTATGTACTTAATAAATGTTAATT [XGTACX_site365]”, the “gcPBM binding intensity (ln)” value worked out at 8.4 ± 0.31.

In the case of “TATATTTATAGACACACACACAAAAAAAAAAAAAAA [CACACA_site6818]”, the “gcPBM binding intensity (ln)” value worked out at 8.37 ± 0.31.

As for “TTTTTTTTTAATTATGCATGTAAATTATATATTATA [TGCATGCA_site335]”, the “gcPBM binding intensity (ln)” value turned out to be 8.9 ± 0.042.

For “AATAAACATATATGTACACACATATACATATATATA [CACACA_site2848]”, the “gcPBM binding intensity (ln)” value was 8.45 ± 0.19.

Regarding “TATTTATAATTAAATACACACATATATTATATATTT [CACACA_site616]”, the “gcPBM binding intensity (ln)” value was 8.19 ± 0.33.

Turning to “TATATTAATTTATATCAACACACAAAATCAATATAC [CACACA_site8518]”, the “gcPBM binding intensity (ln)” value amounted to 8.71 ± 0.39.

On to “TATACGCATATATAAACACACAAAAAAAAAAAAAAA [CACACA_site2026]”, for which the “gcPBM binding intensity (ln)” value turned out to be 8.12 ± 0.45.

With “TTAGCTACACGCTAATGTACACAAATACAAAGAAAA [XGTACX_site3993]”, the “gcPBM binding intensity (ln)” value is 8.68 ± 0.45.

Consider “ATAAAATATTATATATATATATATATATATATATAT [CACACA_negctrl_site215]”, for which the “gcPBM binding intensity (ln)” value came to 10.2 ± 0.36.

On to “AAGAATGTTATATTATGATGCTGTCTTTTTTTAAGA [CACACA_negctrl_site251]”, for which the “gcPBM binding intensity (ln)” value stood at 8.23 ± 0.41.

On to “TGTTAATTAAAACATCATTAATATTATTAAAAATAC [XGTACX_negctrl_site509]”, for which the “gcPBM binding intensity (ln)” value stood at 8.29 ± 0.3.

For “TCTTTTTTTACTTTCTTTTTTTTTTTTTTTTTTTTT [XGTACX_negctrl_site610]”, the “gcPBM binding intensity (ln)” value worked out at 8.73 ± 0.13.

With “CCTTTATAAAAAAGTAGTACACAATGAATTTATAAT [XGTACX_site5523]”, the “gcPBM binding intensity (ln)” value was 8.62 ± 0.35.
